Laboratory results as given in paper PMC4906230.
No constants are given. Whether binding was seen depends on the method and setting. In cells and extracts the contact can be indirect. Tags and fused reporters may be left off the sequences shown.

Molecular target: T1, CYLD-(M1) (deleted for amino acids 556–655) (UniProt Q9NQC7)
T1 sequence: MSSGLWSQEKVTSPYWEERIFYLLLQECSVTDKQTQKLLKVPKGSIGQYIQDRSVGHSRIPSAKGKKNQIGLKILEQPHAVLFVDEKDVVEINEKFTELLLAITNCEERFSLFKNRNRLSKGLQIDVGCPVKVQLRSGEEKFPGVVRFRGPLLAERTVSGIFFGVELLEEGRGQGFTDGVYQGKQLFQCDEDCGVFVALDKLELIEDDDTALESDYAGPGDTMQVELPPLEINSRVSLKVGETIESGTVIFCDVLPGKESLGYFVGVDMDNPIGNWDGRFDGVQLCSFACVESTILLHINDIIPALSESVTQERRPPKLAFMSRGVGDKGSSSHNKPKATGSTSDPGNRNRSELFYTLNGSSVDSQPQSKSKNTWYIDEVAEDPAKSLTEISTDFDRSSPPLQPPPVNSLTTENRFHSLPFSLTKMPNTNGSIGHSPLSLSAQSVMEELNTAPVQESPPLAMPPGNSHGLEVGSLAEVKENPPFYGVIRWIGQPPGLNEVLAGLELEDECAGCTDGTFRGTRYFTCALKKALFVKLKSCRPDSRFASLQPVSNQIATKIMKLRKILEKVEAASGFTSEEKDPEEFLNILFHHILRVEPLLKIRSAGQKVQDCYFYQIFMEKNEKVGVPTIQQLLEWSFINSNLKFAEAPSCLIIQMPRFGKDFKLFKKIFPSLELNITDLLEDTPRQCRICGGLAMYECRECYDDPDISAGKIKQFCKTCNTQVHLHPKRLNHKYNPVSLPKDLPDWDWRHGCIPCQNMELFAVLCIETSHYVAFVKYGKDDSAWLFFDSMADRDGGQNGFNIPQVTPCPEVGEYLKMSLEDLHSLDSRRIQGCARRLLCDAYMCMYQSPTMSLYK
Experiment: co-IP; HEK293 cells transfected with epitope-tagged expression plasmids, lysed 24 h later; lysates immunoprecipitated with anti-Myc or anti-Flag beads and immunoblotted; in Fig. 7f,g with SDC4 overexpressed or knocked down by siRNA

binding: no binding
B1: Myc-tagged SDC4 (protein, UniProt P31431 19-198)
chain: ESIRETEVIDPQDLLEGRYFSGALPDDEDVVGPGQESDDFELSGSGDLDDLEDSMIGPEVVHPLVPLDNHIPERAGSGSQVPTEPKKLEENEVIPKRISPVEESEDVSNKVSMSSTVQGSNIFERTEVLAALIVGGIVGILFAVFLILLLMYRMKKKDEGSYDLGKKPIYKKAPTNEFYA
